# Source: PubChem BioAssay AID1508623 (National Center for Advancing Translational Sciences (NCATS), 2021)
# Screen size: about 48,000 compounds; about 450 (0.94%) were called active. Inconclusive results (about 19%) are left out. The call rests on the fitted dose curve; in most records, active means well fitted inhibition curve with a large enough effect; inconclusive means small, poorly fitted or top-dose-only effect; inactive means no such curve, though single readings can be large or run the other way. This is one part of the list.
# Assay: Primary qHTS for Identification of Small Molecule Inhibitors of Huntingtin Promoter Activity; further: nearly all actives have a fitted effect of over 50% in size
# Settings: HEK293 HTT promoter firefly luciferase reporter (activity 0% = vehicle and -100% = no light), 24 h; series mostly up to 57.5 µM; activity change, negative = inhibition: at the top concentration
# How it was run: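 HEK293 luciferase promoter-reporter cells (2,500/well) plated 24 h, then compounds added at up to 57.5 uM final for 24 h at 37 °C. Firefly luminescence by Dual-Glo, normalized to vehicle (0%) and zero RLU (-100%).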
row,SMILES,"activity change, negative = inhibition"
1,COc1ccc(OC(=O)CSc2nnc(-c3ccc(F)cc3)o2)cc1,inactive: 2.75%
2,CCCn1c2ccccc2c2cnn(CC(=O)NC(C)CC)c(=O)c21 (centres undefined),inactive: -15%
3,CCC(=O)N1CCN(c2nc3c(C)cccc3s2)CC1,inactive: 24.3%
4,Cc1ccc([N+](=O)[O-])c(Oc2ncnc3c2oc2ccccc23)c1,inactive: -19.3%
5,Cc1ccc(NC(=O)CCCN2C(=O)COc3ccc(C)cc32)c(C)c1,inactive: -11.3%
6,Cc1c(N)c(=O)n(-c2ccccc2)n1C,inactive: -6.07%
7,COc1ccc2c(Sc3ccccc3)c(C(=O)N3CCC(C)CC3)[nH]c2c1,inactive: 7.85%
8,Cc1ccc(CNC(=O)CN2C(=O)CSc3ccc(S(=O)(=O)N4CCCC4)cc32)cc1,inactive: -6.39%
9,CCc1ccc(C(=O)CSc2nc(-c3ccccc3)nc3c2CCCC3)cc1,inactive: -8.29%
10,COc1ccc2nc3sc(C(=O)N4CCN(c5ccc(F)cc5)CC4)cc3cc2c1,inactive: 2.26%
11,COc1ccc(CNS(=O)(=O)c2ccc(F)c(C(=O)Nc3c(C)cc(C)cc3C)c2)cc1,inactive: -24.6%
12,CCOC(=O)c1cc(-c2ccc(OC)cc2)n(CCC(=O)Nc2cccc(C(C)=O)c2)c1C,inactive: -19.3%
13,Cc1cc2oc(C(=O)Nc3sc4c(c3C(=O)NCc3ccccc3)CCCC4)cc(=O)c2cc1C,inactive: -13.2%
14,CN(C)c1ccc(CNC(=O)CN2C(=O)CCn3nc(-c4cn(C)c5ccccc45)cc32)cc1,inactive: -4.04%
15,COc1cccc(-c2nc3c(c(SCc4ccccc4Cl)n2)Cc2c(CO)cnc(C)c2O3)c1,inactive: -11.8%
16,CCCN(CCC)C(=O)C1CCCN(c2ncnc3onc(-c4ccc(F)cc4)c23)C1 (centres undefined),inactive: 1.15%
17,CCC(C)NC(=O)CSc1nnc(-c2ccc(C)cc2)c(-c2ccc(C)cc2)n1 (centres undefined),inactive: -25.7%
18,COc1cccc(CNC(=O)C2CCN(C(=O)c3sccc3-n3cccc3)CC2)c1,inactive: -19.4%
19,O=C(NCCCO)C(=O)Nc1c2c(nn1-c1ccccc1)CSC2,inactive: -14.2%
20,CCCN(CCC)C(=O)c1cn(CC)c2ccc(S(=O)(=O)N3CCCCC3)cc2c1=O,inactive: 1.91%
21,CCC(CC)C(=O)NCc1nc2cccnc2n1Cc1ccc(F)cc1,inactive: -2.32%
22,O=C(CN1C(=O)C2(SCC(=O)N2c2ccccc2)c2ccccc21)NCCc1ccccc1 (centres undefined),inactive: -18.4%
23,Cc1cn2c(=O)cc(COC(=O)c3ccccc3F)nc2s1,inactive: -11.5%
24,Cc1ccc(C(=O)Nc2ccccc2C(=O)OCc2cc(=O)n3nc(C4CC4)sc3n2)cc1,inactive: 2.96%

row,SMILES,"activity change, negative = inhibition"
1,CCOc1ccc(-c2nnc(SCC(=O)c3ccc(F)cc3)n2-c2ccccc2)cc1,inactive: -24.1%
2,Cc1cc(C)cc(NC(=O)CCCc2nnc3n(CC(C)C)c(=O)c4sccc4n23)c1,inactive: -9.59%
3,CCN(CC)CCCNC(=O)C(=O)Nc1ccc2nc3n(c(=O)c2c1)CCCCC3,inactive: 10.3%
4,Cc1ccc(Cn2ccnc2SCC(=O)Nc2ccc3c(c2)OCCO3)cc1,inactive: 7.05%
5,COc1ccc(/C=C/C(=O)Nc2ccc(Cl)cc2Cl)cc1,inactive: -12.6% [at 11.5 µM]
6,Cc1ccc(NC(=O)Cn2cc(C(=O)c3ccco3)c3ccccc32)c(C)c1,inactive: -22.1%
7,CCOc1cc(C2CC(=O)Nc3c2c(=O)nc(SCc2cccc(Cl)c2)n3C)ccc1O (centres undefined),inactive: -0.835%
8,Cc1ccccc1CNC(=O)c1cc2cccc3c2n1CC(C)S3 (centres undefined),inactive: -28.1%
9,CCOc1ccc(OCC)c(-n2cnnn2)c1,inactive: -7.19%
10,Cc1c(NC(=O)Nc2ccc(Cl)c(C(F)(F)F)c2)c(=O)n(-c2ccccc2)n1C,inactive: -17.6%
11,Fc1ccccc1N1CCN(c2ncnc3onc(-c4cccc(Cl)c4)c23)CC1,inactive: -28.8%
12,COc1cccc(OCc2cc(=O)n3cc(C)sc3n2)c1,inactive: 35%
13,Cc1cccn2c(=O)cc(COc3ccc(NC(=O)C(C)Oc4ccccc4)cc3)nc12 (centres undefined),inactive: -24.8%
14,Cn1c(=O)c2c(-c3ccccc3Br)n(Cc3ccccc3)cc2n(C)c1=O,inactive: -6.41%
15,NS(=O)(=O)c1ccc(NC(=O)CN2CCN(c3ccc(F)cc3)CC2)cc1,inactive: -29.2%
16,COc1ccc(-n2c(SCC(=O)NC3CCCCC3)nc3c([nH]c4ccccc43)c2=O)cc1,inactive: 6.12%
17,COc1ccc(-c2cc3c(=O)n(CC(=O)Nc4cc(C)ccc4C)ccn3n2)cc1,inactive: 16.3%
18,Cc1ccc(Cl)cc1-n1ncc2c(NCCC3=CCCCC3)ncnc21,inactive: -33.3%
19,CC1CC(=O)N(CC(=O)Nc2ccc(F)cc2F)c2ccccc2S1 (centres undefined),inactive: -10.7%
20,Cc1c(-c2ccccc2)c(=O)oc2c(CN3CCCC3)c(O)ccc12,inactive: -1.09%
21,CCc1ccc(C2CC(=O)NC(NC(=O)c3ccc(C(C)(C)C)cc3)=N2)cc1 (centres undefined),inactive: 6.71%
22,CCOc1ccc(/C=C/c2nc(C#N)c(Nc3ccc(OCC)cc3)o2)cc1,inactive: 0.139%
23,COc1ccc(NC(=O)Nc2cccc(-c3cn4cccnc4n3)c2)cc1,inactive: 25.1%
24,O=C(NCCc1ccc(Cl)cc1)c1ccc2c(c1)N(Cc1ccccc1F)C(=O)c1ccccc1S2(=O)=O,inactive: 9.68%

row,SMILES,"activity change, negative = inhibition"
1,CCOc1ccc(NC(=O)Cn2c(=O)n(Cc3ccc(C(=O)NCc4ccc(C)cc4)cc3)c(=O)c3ccccc32)cc1,inactive: -0.57%
2,CC=CC[C@@H](C)C(=O)[C@H]1C(=O)N[C@@H](C(C)C)C(=O)N(C)CC(=O)N(C)[C@@H](CC(C)C)C(=O)N[C@@H](C(C)C)C(=O)N(C)[C@@H](CC(C)C)C(=O)N[C@@H](C)C(=O)N[C@H](C)C(=O)N(C)[C@@H](CC(C)C)C(=O)N(C)[C@@H](CC(C)C)C(=O)N(C)[C@@H](C(C)C)C(=O)N1C,inactive: 16.1%
3,COc1cccc(CNC(=O)CN2C(=O)COc3ccc(S(=O)(=O)N4CCCCCC4)cc32)c1,inactive: -25.4%
4,CCc1cccc(NC(=O)Cn2c(=O)n(CCC(=O)NCC3CCCO3)c(=O)c3cc(OC)c(OC)cc32)c1 (centres undefined),inactive: -7.7%
5,Cc1ccc(-c2nc3ncccc3o2)cc1NC(=O)c1ccccc1Br,inactive: 7.03%
6,Cc1ccc(CNC(=O)c2cc3c(s2)-c2ccc(Cl)cc2SC3)cc1,inactive: -11.7%
7,CN(C)c1ccc(NC(=O)CN2CCN(CC(=O)Nc3ccc(Br)cc3)CC2)cc1,inactive: -5.25%
8,Cc1ccc(CSC2=Nc3ccccc3C3=NC(CC(=O)NCc4cccs4)C(=O)N23)cc1 (centres undefined),inactive: 4.36%
9,COc1ccc(C(=O)Nc2nnc(S(=O)(=O)N3CCC(C)CC3)s2)cc1OC,inactive: -7.84%
10,CCN(C(=O)C1CCCN(c2ncnc3onc(-c4ccc(F)cc4)c23)C1)c1ccccc1 (centres undefined),inactive: -4.68%
11,CCOc1ccc(NC(=O)NCCn2nnc3cc(S(=O)(=O)N(C)C)ccc32)cc1,inactive: -13%
12,CC(C)(C)c1ccc(-c2nc(S(=O)(=O)c3ccccc3)c(N3CCOCC3)o2)cc1,inactive: -14.6%
13,CC1CCCCN1Cc1c(O)ccc2c(=O)c(-c3ccccc3)coc12 (centres undefined),inactive: -3.07%
14,Cc1ccc(CNC(=O)c2sc3nc(-c4ccc(F)cc4)ccc3c2N)cc1,inactive: -5.89%
15,CCOC(=O)C1=C(CN2CCCCC2)NC(=O)NC1c1ccc(C)cc1 (centres undefined),inactive: -5.48%
16,CCOc1ccc(C(CC(=O)Nc2cc(C)c(Cl)cc2OC)N2Cc3ccccc3C2=O)cc1OC (centres undefined),inactive: -23.4%
17,COC(=O)c1ccccc1NC(=O)CCc1c(C)nc2c(c(C)nn2-c2ccccc2)c1C,inactive: 11.4%
18,COc1ccc(Cn2ccc3nc(C)c(C(=O)NCc4ccc(OC)cc4OC)cc3c2=O)cc1,inactive: 8.23%
19,COc1cccc(CNC(=O)CCCn2nc(C)n3c(cc4sccc43)c2=O)c1,inactive: -0.0687%
20,CCN(C(=O)c1nn(-c2ccc(C)cc2)c(=O)c2c1c1ccccc1n2C)c1ccc(F)cc1,inactive: -8.48%
21,O=C(Nc1nnc(S(=O)(=O)N2CCCC2)s1)c1ccccc1F,inactive: 19.2%
22,Cc1ccc(N2CC(NC(=O)c3ccco3)CC2=O)cc1C (centres undefined),inactive: -25.6%
23,CC(C)COc1ccc(-c2nonc2NC(=O)c2ccc(F)cc2)cc1,inactive: -21.7%
24,O=C(NCCc1ccccc1)c1ccc(CSc2nc3ccncc3n2Cc2ccccc2F)cc1,inactive: 7.14%

row,SMILES,"activity change, negative = inhibition"
1,O=C(Cn1ncc2c([nH]c3ccccc32)c1=O)NCc1cccc(Cl)c1,inactive: 6.93%
2,CCOC(=O)c1cnc2c(C)cc(Cl)cc2c1NCCc1ccc(OC)c(OC)c1,inactive: 1%
3,COc1ccc(NC(=O)C(C)n2c(C)c3cnn(-c4ccccc4)c(=O)c3c2C)cc1Cl (centres undefined),inactive: -26.5%
4,O=C(CC1N=C2c3ccccc3N=C(SCc3ccccc3Cl)N2C1=O)NCc1cccs1 (centres undefined),inactive: -17.2%
5,COc1ccc(C(=O)NNc2ncnc3c2cnn3-c2ccccc2)cc1,inactive: -22.1%
6,CCOC(=O)C1CCCN(Cc2cn3c(-c4ccc(Br)cc4)nnc3s2)C1 (centres undefined),inactive: -11.5%
7,CCOc1ccc(NC(=O)Cc2ccc(-n3c(C)nc4cccnc43)cc2)cc1,inactive: -14.2%
8,CC(=O)N1CCC(N(Cc2ccco2)C(=O)Nc2ccc(Br)cc2F)CC1,inactive: -0.482%
9,Cc1ccc(NC(=O)CN2C(=O)c3ccccc3Sc3ccc(C(=O)N4CCCC4)cc32)cc1,inactive: 8.66%
10,CCN(CC)CCNC(=O)c1[nH]c2ccccc2c1Sc1ccc(Cl)cc1,inactive: -25.8%
11,COc1ccc(NC(=O)C(NC(=O)/C=C\c2ccc3c(c2)OCO3)c2ccc(OC)cc2)cc1 (centres undefined),inactive: -23%
12,COC(=O)c1c(NC(=O)COc2c(C)ccc(C)c2C)sc2c1CCC(C)C2 (centres undefined),inactive: -3.81%
13,CC1=C(C(=O)Nc2cccnc2)C(c2ccc(Cl)cc2)n2nc(SCc3ccccc3)nc2N1 (centres undefined),inactive: -5.4%
14,CCN(CC)c1cc2c(cc1F)c(=O)c(S(=O)(=O)c1ccc(C)cc1)cn2Cc1ccc(F)cc1,inactive: -7.42%
15,CCOc1ccc(NC(=O)[C@H](Cc2ccccc2)N2Cc3ccccc3C2=O)cc1,inactive: -16.8%
16,O=C(Cn1ncc2ccsc2c1=O)N1CCN(c2ccccc2)CC1,inactive: 2.52%
17,CCCSc1nc2c(c(=O)[nH]1)C(c1ccc(F)cc1F)CC(=O)N2 (centres undefined),inactive: -17.7%
18,CCCN1CCN(c2ncnc3sc(C(=O)Nc4cccc(Cl)c4C)c(C)c23)CC1,inactive: -23%
19,CCC1CCc2nc3sc(C(=O)Nc4ccc(F)c(F)c4)c(N)c3cc2C1 (centres undefined),inactive: 12.9%
20,COc1ccc(NC(=O)CSc2nc3c(c(=O)[nH]2)CCC3)cc1,inactive: -10.8%
21,CC(C)c1ccccc1Oc1c(C(F)(F)F)oc2c(CN3CCN(C)CC3)c(O)ccc2c1=O,inactive: -24.1%
22,CCOc1ccccc1Nc1sc(C(=O)c2ccc(Cl)cc2)c(N)c1C(=O)NCCc1ccccc1,inactive: -14.6%
